The data set concerns GluA1, GluN2A, GluN2B. The data set can be described thus: Immunostaining of synaptic and extrasynaptic glutamate receptor subunits in hippocampal CA1. Conditions: repeated Δ^9-THC exposure.

On to `CCCCCc1cc(O)c2c(c1)OC(C)(C)[C@@H]1CCC(C)=C[C@@H]21` [Δ^9-THC, Δ^9-tetrahydrocannabinol], for which the “synaptic and extrasynaptic GluA1, GluN2A, GluN2B expression (immunostaining)” value is given as “significantly reduced”.

The values above are taken from patent publication US9833433B1, “Compositions, methods of use, and methods of treatment” (priority 2013, dated 2017).
